Measurements taken from publication PMC12820563.
This is one part of the list. The list includes weakly bound sequences.

molecular target: T1, MBP-FoxP3dN (UniProt Q99JB6); assay: PD-seq (MBP pull-down with sequencing); details: 20 mM Tris-HCl pH 7.5, 100 mM NaCl, 1.5 mM MgCl2, 0.4 uM protein, 0.1 uM dsDNA library, 30 min, room temperature, amylose pull-down; high values mean tight binding; double strand, one strand shown
T1 sequence: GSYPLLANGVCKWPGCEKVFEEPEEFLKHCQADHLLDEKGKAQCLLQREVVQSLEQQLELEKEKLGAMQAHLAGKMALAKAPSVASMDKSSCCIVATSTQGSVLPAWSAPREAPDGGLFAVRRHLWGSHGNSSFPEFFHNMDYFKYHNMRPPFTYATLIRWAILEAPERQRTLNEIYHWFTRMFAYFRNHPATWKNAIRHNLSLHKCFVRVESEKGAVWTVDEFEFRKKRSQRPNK

Question: For “GATGATTGTTCTCCCAGCTGATGAATTTACGGGGTCGAGTAAACAAATTTTCCTAATCTTTCTGTTCAAGCGCCATCTAC”, which binding signal (RPM ratio (pull-down/input)) is on record?
Answer: 0.323

Question: Which binding signal (RPM ratio (pull-down/input)) does the source give for “GATGATTGTTCTCCCAGCTGATGAATTCCTAATATCGAGTAAACAAATTTTCCTAATCTTTCTGTTCAAGCGCCATCTAC” here?
Answer: 0.374

Question: How did the binding signal (RPM ratio (pull-down/input)) turn out when “GATGATTGTTCTCCCAGCTGATGAATTCTCCCCTTCGAGTAAACAAATTTTCCTAATCTTTCTGTTCAAGCGCCATCTAC” was run?
Answer: 0.205

Question: “GATGATTGTTCTCCCAGCTGATGAATTTTGGCCATCGAGTAAACAAATTTTCCTAATCTTTCTGTTCAAGCGCCATCTAC” was tested. Which binding signal (RPM ratio (pull-down/input)) did it give?
Answer: 1.6

Question: Which binding signal (RPM ratio (pull-down/input)) does the source give for “GATGATTGTTCTCCCAGCTGATGAATTGTACAATTCGAGTAAACAAATTTTCCTAATCTTTCTGTTCAAGCGCCATCTAC” here?
Answer: 0.443

Question: How did the binding signal (RPM ratio (pull-down/input)) turn out when “GATGATTGTTCTCCCAGCTGATGAATTCTACAGCTCGAGTAAACAAATTTTCCTAATCTTTCTGTTCAAGCGCCATCTAC” was run?
Answer: 0.263

Question: Which binding signal (RPM ratio (pull-down/input)) does the source give for “GATGATTGTTCTCCCAGCTGATGAATTAGCTTAGTCGAGTAAACAAATTTTCCTAATCTTTCTGTTCAAGCGCCATCTAC” here?
Answer: 1.23

Question: Which binding signal (RPM ratio (pull-down/input)) does the source give for “GATGATTGTTCTCCCAGCTGATGAATTGATCACCTCGAGTAAACAAATTTTCCTAATCTTTCTGTTCAAGCGCCATCTAC” here?
Answer: 0.663

Question: How did the binding signal (RPM ratio (pull-down/input)) turn out when “GATGATTGTTCTCCCAGCTGATGAATTCATTTCTTCGAGTAAACAAATTTTCCTAATCTTTCTGTTCAAGCGCCATCTAC” was run?
Answer: 0.743

Question: How did the binding signal (RPM ratio (pull-down/input)) turn out when “GATGATTGTTCTCCCAGCTGATGAATTCTTGGGATCGAGTAAACAAATTTTCCTAATCTTTCTGTTCAAGCGCCATCTAC” was run?
Answer: 0.227

Question: With “GATGATTGTTCTCCCAGCTGATGAATTTTGGCCGTCGAGTAAACAAATTTTCCTAATCTTTCTGTTCAAGCGCCATCTAC” as the sequence, how does the binding signal (RPM ratio (pull-down/input)) read?
Answer: 0.44

Question: “GATGATTGTTCTCCCAGCTGATGAATTACTCCATTCGAGTAAACAAATTTTCCTAATCTTTCTGTTCAAGCGCCATCTAC” was tested. Which binding signal (RPM ratio (pull-down/input)) did it give?
Answer: 0.327

Question: For “GATGATTGTTCTCCCAGCTGATGAATTGTTATCCTCGAGTAAACAAATTTTCCTAATCTTTCTGTTCAAGCGCCATCTAC”, which binding signal (RPM ratio (pull-down/input)) is on record?
Answer: 2.64

Question: With “GATGATTGTTCTCCCAGCTGATGAATTTGATGCGTCGAGTAAACAAATTTTCCTAATCTTTCTGTTCAAGCGCCATCTAC” as the sequence, how does the binding signal (RPM ratio (pull-down/input)) read?
Answer: 3.1

Question: With “GATGATTGTTCTCCCAGCTGATGAATTTCTTCTGTCGAGTAAACAAATTTTCCTAATCTTTCTGTTCAAGCGCCATCTAC” as the sequence, how does the binding signal (RPM ratio (pull-down/input)) read?
Answer: 0.203

Question: For “GATGATTGTTCTCCCAGCTGATGAATTCATACTATCGAGTAAACAAATTTTCCTAATCTTTCTGTTCAAGCGCCATCTAC”, which binding signal (RPM ratio (pull-down/input)) is on record?
Answer: 0.534

Question: How did the binding signal (RPM ratio (pull-down/input)) turn out when “GATGATTGTTCTCCCAGCTGATGAATTTGCTAGATCGAGTAAACAAATTTTCCTAATCTTTCTGTTCAAGCGCCATCTAC” was run?
Answer: 0.528

Question: With “GATGATTGTTCTCCCAGCTGATGAATTGTAGATCTCGAGTAAACAAATTTTCCTAATCTTTCTGTTCAAGCGCCATCTAC” as the sequence, how does the binding signal (RPM ratio (pull-down/input)) read?
Answer: 0.487
